Assay results reported in paper PMC4336329 (PLoS ONE, 2015).
In all, about 310,000 compounds went through this assay and about 2,200 (0.71%) showed an effect of 50% or more. The effect is printed as a negative number. The list shows a part of the results.

These molecules were tested against human ether-à-go-go-related gene (hERG) potassium channel (human, UniProt Q12809) (assay: primary screen, population patch clamp on CHO cells stably expressing hERG).
Sequence of human ether-à-go-go-related gene (hERG) potassium channel (Q12809 whole entry, looked up): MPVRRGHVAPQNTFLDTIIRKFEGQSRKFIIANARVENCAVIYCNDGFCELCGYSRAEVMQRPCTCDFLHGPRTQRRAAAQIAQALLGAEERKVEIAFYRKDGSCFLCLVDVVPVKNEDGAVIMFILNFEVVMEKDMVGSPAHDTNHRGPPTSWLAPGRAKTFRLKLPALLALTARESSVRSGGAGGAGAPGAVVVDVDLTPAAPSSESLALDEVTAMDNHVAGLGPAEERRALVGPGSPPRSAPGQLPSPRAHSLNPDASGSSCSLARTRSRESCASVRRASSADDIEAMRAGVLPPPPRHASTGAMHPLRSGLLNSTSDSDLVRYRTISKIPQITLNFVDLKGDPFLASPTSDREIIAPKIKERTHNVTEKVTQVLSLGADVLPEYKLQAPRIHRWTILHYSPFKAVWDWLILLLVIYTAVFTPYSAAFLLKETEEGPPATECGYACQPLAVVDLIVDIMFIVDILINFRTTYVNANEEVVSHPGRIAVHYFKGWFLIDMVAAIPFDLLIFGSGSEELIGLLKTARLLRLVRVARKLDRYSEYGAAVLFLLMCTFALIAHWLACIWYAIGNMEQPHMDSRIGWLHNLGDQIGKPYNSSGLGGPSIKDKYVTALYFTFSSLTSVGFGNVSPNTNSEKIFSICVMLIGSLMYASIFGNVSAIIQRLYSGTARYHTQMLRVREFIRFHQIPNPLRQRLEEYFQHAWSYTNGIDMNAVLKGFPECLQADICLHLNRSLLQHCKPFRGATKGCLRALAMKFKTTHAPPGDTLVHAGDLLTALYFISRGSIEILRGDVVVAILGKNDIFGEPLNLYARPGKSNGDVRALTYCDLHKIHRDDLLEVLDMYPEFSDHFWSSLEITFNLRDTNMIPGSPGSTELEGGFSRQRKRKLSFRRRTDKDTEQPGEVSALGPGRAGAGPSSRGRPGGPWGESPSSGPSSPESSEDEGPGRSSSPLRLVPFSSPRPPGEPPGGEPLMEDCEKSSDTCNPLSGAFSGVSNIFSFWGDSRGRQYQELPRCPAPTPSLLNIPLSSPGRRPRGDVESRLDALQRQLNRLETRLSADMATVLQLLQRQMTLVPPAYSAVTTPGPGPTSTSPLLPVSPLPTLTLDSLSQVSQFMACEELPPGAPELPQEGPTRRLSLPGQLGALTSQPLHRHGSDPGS

Compound	hERG current change (%, negative = inhibition) at 1uM
COc1ccc(/C=C2\Oc3cc(OC(=O)N4CCOCC4)ccc3C2=O)cc1	3.7%
C=CCn1c(SCC(=O)OCc2ccccc2)nc2c1c(=O)n(C)c(=O)n2C	-1.44%
COc1ccccc1CNS(=O)(=O)c1c(C(=O)N2CCCCC2)c(C)n(C)c1C	10.8%
Cc1ccc(C)c(S(=O)(=O)NCCCc2ccccc2)c1	10.9%
COc1cccc(-n2nc(C(C)=O)c(C#N)c2-c2ccco2)c1	10.9%
C=CCc1c(O)nc(SCC(=O)c2ccccc2)[nH]c1=O	5.27%
O=C(N/N=C/c1ccccc1F)NC1CCCCC1	0.617%
c1ccc(-c2nc(-c3ccncc3)no2)cc1	12.2%
O=C(Nc1ccc(S(=O)(=O)N2CCOCC2)cc1)c1ccc(=O)[nH]c1	15.5%
CCN(CC)c1ccc(NC(=O)CCc2nnc3ccc(N4CCCC4)nn23)c(C)c1	7.38%
O=C(/C=C\c1ccccc1)Nc1ccc(NC(=O)c2ccco2)cc1	12%
CC(OC(=O)CNS(=O)(=O)c1ccc(C#N)cc1)C(=O)Nc1ccc(Cl)cn1 (stereo not drawn)	-24.2%
CCOc1cc2c(cc1OCC)-n1cccc1C(c1cc(C)c(OC)cc1C)NC2.Cl (stereo not drawn)	-1.29%
COc1ccccc1Nc1nc(C)cc(=O)[nH]1	-2.18%
CCCCCOc1ccccc1C(=O)NCC(=O)O	6.44%
CN(CC(=O)NCc1ccc(Cl)cc1)S(=O)(=O)c1cccc2nsnc12	-5.69%
Cc1cc(N2C(=O)C(O)=C(C(=O)c3ccco3)C2c2cccnc2)no1 (stereo not drawn)	12.6%
Cc1ccccc1N=C(NOCc1ccc(Cl)cc1Cl)c1nonc1N	-0.598%
CC1(C)CC2(CCCN(C(=S)Nc3ccccc3)C2)CCO1 (stereo not drawn)	16.2%
Cc1cc2c(cc1S(=O)(=O)NCc1ccccc1)NC(=O)CO2	4%
COc1ccccc1-c1cc(C(=O)N/N=C/c2ccc(C)s2)c2ccccc2n1	16.3%
COc1ccc(-c2ccc(/C=C3/C(=N)N4C(C)=CSC4=NC3=O)o2)c([N+](=O)[O-])c1	14.4%

Compound	hERG current change (%, negative = inhibition) at 1uM
Nc1cc(N)nc(SCC(=O)NCCC2=CCCCC2)n1	3.85%
COc1ccc(/C=C2\SC(=N)N(c3ccc(F)cc3)C2=O)cc1OC	15.2%
CCc1nnc(NC(=O)C2Cc3ccccc3C(=O)O2)s1 (stereo not drawn)	6.1%
O=C(O)CCNS(=O)(=O)c1cccc2nsnc12	11.7%
Cc1ccc(C2C(C=Nc3c(C)n(C)n(-c4ccccc4)c3=O)=C(c3ccccc3)Oc3ccccc32)cc1 (stereo not drawn)	13.3%
COC(=O)c1sccc1NC(=O)CSc1ccccc1NC(=O)CNC(C)C	5.26%
COc1ccc(CCNC(=O)CSc2ncnc3c2oc2ccccc23)cc1OC	0.642%
COC(=O)C1C(=O)C2=C(CC1C)NC(C)=C(C(=O)OC1CCCC1)C2c1ccc(N(C)C)cc1 (stereo not drawn)	6.86%
CCOC(=O)c1ccccc1NC(=O)COC(=O)C1CCCC1	9.69%
O=[N+]([O-])c1cc(S(=O)(=O)N2CCCC2)ccc1N/N=C/c1cccnc1	14%
O=C(O)c1nn(-c2ccccc2)ccc1=O	8.64%
Cc1cc(C)n(-c2cc(N3CCN(C(=O)c4ccc(C(C)(C)C)cc4)CC3)ccc2[N+](=O)[O-])n1	3.39%
COc1ccc(C2C3=C(CC(C)(C)CC3=O)Oc3ncn(CC(C)C)c(=N)c32)cc1 (stereo not drawn)	-31%
Cc1ccccc1C(=O)O/N=C(\c1ccccc1)c1ccccn1	-2.7%
COc1ccc([N+](=O)[O-])cc1NC(=O)C(C)Sc1nc(-c2ccccc2)cs1 (stereo not drawn)	15.8%
O=C(CN(C(=O)c1csnn1)c1ccc(F)c(Cl)c1)NCc1ccc(F)cc1	22.8%
CC1(c2ccc(OC(F)F)cc2)NC(=O)N(CC(=O)Nc2cccc(S(N)(=O)=O)c2)C1=O (stereo not drawn)	8.76%
O=C(CN1CCN(c2nc(-c3ccc(F)cc3)cs2)CC1)NCc1ccc2c(c1)OCO2	-17.1%
COc1cc(OC)cc(C(=O)NCC(=O)Nc2ccc(OC)c(Cl)c2)c1	4.05%
Oc1ccc(N2CCN(C(c3ccccn3)c3nnnn3C3CCCC3)CC2)cc1 (stereo not drawn)	-5.57%
Nc1nonc1C(=O)NCCNC(=O)c1ccc(Cl)cc1	7.86%
CC(=O)N1CCc2cc(S(=O)(=O)CCC(=O)Nc3ccc(Cl)cc3F)ccc21	11.3%

Compound	hERG current change (%, negative = inhibition) at 1uM
Cc1cc(NC(=O)CC(CN(C)S(=O)(=O)c2ccccc2)c2ccccc2)no1 (stereo not drawn)	-2.11%
O=C(Nc1cccc(C(F)(F)F)c1)C1CCN(S(=O)(=O)c2cnc[nH]2)CC1	14%
COc1ccc(CC(=O)OCN2C(=O)c3ccccc3C2=O)cc1OC	14.5%
Fc1ccc(-c2csc(-c3ccccn3)n2)cc1F	13%
COc1cc2c(cc1OC)-c1cc(NC3CCCCC3)nc(=O)n1CC2	-0.505%
CCn1c(=O)c(-[n+]2ccccc2)c(O)c2ccccc21.[Cl-]	18.4%
CCN1CCN(C(C)C(=O)Nc2c(C)n(C)n(-c3ccccc3)c2=O)CC1.O=C(O)C(=O)O (stereo not drawn)	20.4%
COc1ccccc1N1CCN(C(CNS(=O)(=O)c2ccccc2)c2ccccc2)CC1 (stereo not drawn)	15.1%
Cc1ccc(CNc2ccc3c(c2)OCO3)c(C)c1	0.499%
CCCCn1c(SCC(=O)c2ccc(OC)c(OC)c2)nc2cc(S(N)(=O)=O)ccc21	6.89%
C/C=C/CC#N	11.8%
CC(=O)c1cccc(NC(=O)/C(=C\c2cccnc2)NC(=O)c2ccccc2)c1	4.42%
CCOc1ccc(-c2ncncc2-c2ccccc2OC)c(O)c1	4.41%
CC(C)CN1CCN=C1Nc1ccccc1	9.9%
COc1ccc2[nH]cc(C(O)CN3CCN(c4ccccc4F)CC3)c2c1 (stereo not drawn)	8.35%
CCCCNc1cc(C)nc(N2CCOCC2)n1	-23.5%
Cn1nnnc1Sc1ncnc2scc(-c3cccc(F)c3)c12	16.9%
O=C(Nc1cccc(F)c1)Nc1ccccn1	16%
CCn1c(C)nc2cc(C(=O)NNC(=S)NC(=O)c3ccccc3)ccc21	15.4%
COc1cc(C2NC(=O)NC(C)=C2C(=O)OC2CCCCC2)cc(Br)c1O (stereo not drawn)	4.36%
Cc1ccc(/C=C/C(=O)NCCc2ccccc2)o1	19%
CC(=O)O[C@@H]1/C=C/[C@](C)(O)C[C@@H](C)C/C=C/[C@H]2[C@H](O)[C@@](C)(O)[C@@H](C)[C@H]3[C@H](Cc4ccccc4)NC(=O)[C@@]312	16.6%

Compound	hERG current change (%, negative = inhibition) at 1uM
CC(C)N1CC(O)=C(c2ccccc2)C1=N	10.4%
COc1ccc(C2/C(=C(/O)c3ccc(C)cc3)C(=O)C(=O)N2c2ccccn2)cc1OC (stereo not drawn)	14%
COc1ccc(-c2ocnc2C(=O)Nc2ccccc2N2CCCCC2)cc1	-8.65%
Cl.Fc1ccc(C2=CSC3=NCCN23)cc1	13.8%
CCN(CC(=O)Nc1cc(Cl)ccc1C)C(=O)c1nc2nc(C)cc(C)n2n1	6.93%
Cc1ccc2c(c1)C1(C(=O)N2C)N2CC3(C)CN1CC(C)(C2)C3=O (stereo not drawn)	15.9%
Cc1csc(SC(C)C(=O)NCC2CCCCC2)n1 (stereo not drawn)	17%
O=C1c2ccccc2C(=O)N1Cc1nc2ccccc2c(=O)n1CCCN1CCOCC1	4.94%
COc1ccc(C(=O)NCc2ccc(C)cc2)cc1S(=O)(=O)N1CCCC1	8.23%
CCCNS(=O)(=O)c1ccc(CCC(=O)Nc2ccc3c(c2)OCO3)cc1	9.2%
COc1cc2c(cc1OC)-c1cc(N3CCCc4ccccc43)nc(=O)n1CC2	8.81%
COC(=O)c1cc(COC(=O)c2nc3nccc(C)n3n2)oc1C	9.87%
Cn1c(=O)c2c(ncn2CC(=O)OCC(=O)Nc2ccc(F)cc2F)n(C)c1=O	-0.963%
O=c1c2ccccc2nc(COc2ccccc2)n1/N=C/c1cc([N+](=O)[O-])ccc1O	3.59%
c1ccc(Cn2nnc3c(N4CCOCC4)ncnc32)cc1	13.1%
Nc1nc(Nc2cccc(Cl)c2)nc(NCCO)c1[N+](=O)[O-]	-8.78%
CCOC(=O)C1C(=O)C=C(c2ccc(NS(C)(=O)=O)cc2)CC1c1ccco1 (stereo not drawn)	-41.9%
O=S(=O)(Nc1cc(S(=O)(=O)N2CCOCC2)ccc1N1CCOCC1)c1ccc2c(c1)OCCO2	28.4%
Cc1ccc(-c2nnn(CC(=O)N3CCCCC3)n2)cc1	9.43%
O=C(Nc1ccccc1N1CCN(C(=O)c2ccccc2)CC1)c1ccccc1Cl	-29.8%
Cc1ccc([N+](=O)[O-])cc1-c1[nH]c(-c2ccc(O)c(O)c2)nc1-c1ccccc1	0.511%
